Test results reported in patent US20080075796A1, “Compositions and Methods for Controlling Insects” (TyraTech, Inc., priority 2003, published 2008).
“And” between values parts separate entries of the source, which are not always exact repeats. Equal entries are not always repeated.

Tested on: Carpenter ants
Experiment: Repellent effect on carpenter ants (treated filter paper)
Assay type: in vivo
Protocol: Adult insect are randomly selected for testing the repellent effect of compositions and are not individually marked. About 5 insects per replicate are used. About 3 replicates are used for each treatment. Untreated control tests are included with only solvent (acetone) application to an equal sized population/replications, held under identical conditions. A filter paper (about 80 cm^2) is treated with the composition (about 100 mg in […] acetone). After about 3 min of air drying, the filter paper is placed in a dish and repellency against insects is performed. Insects are released to the dish, one insect at a time at the far end of the dish. Using one or more stopwatches, the time spent on either the filter paper or the untreated surface of the dish is recorded up to about 300 seconds. Repellency ratio (RR) is calculated as follows: RR=[(time on control surface−time on treated surface)/total time of test]. If RR>0 then the composition is considered to have a repellant effect, that is to say, an effect, wherein more insects are repelled away from treated surface than the control surface; if RR<0 then the composition is considered not to have a repellant effect.
The repellent effect of various plant essential oils is tested by treating a filter paper with the test oils. After about five minutes at room temperature, the paper is placed in a dish and ants are introduced one at a time. The repellency is determined as described above, in Example 14. Oils are tested alone. Additionally, oils are mixed to form compositions, which are then tested.

[1] = Day 0, time on treated surface of up to about 300 seconds

Structure (SMILES) | Repellency %, R % (Day 0) [%] | sec. on T surface [1] | Repellency %, R % (Day 1) [%] | sec. on T surface (Day 1) [s]
C=CCc1ccc(O)c(OC)c1 [eugenol] | 48.8 | 76.8 s | 7.3 | 139.0
Cc1ccc(C(C)C)c(O)c1 [thymol] | 58.3 | 62.0 s and 62 s | – | 104.4
